In publication PMC13601526:
These are yes or no findings as the source states them, for the method shown. Binding seen in cells or lysates may run through a third protein. Some entries that bind do so weakly or less than the wild type.

Sequences of proteins named here, by UniProt entry; tags and fusion partners are left off. Residues count along the entry.
UniProt P42081, residues 24-329: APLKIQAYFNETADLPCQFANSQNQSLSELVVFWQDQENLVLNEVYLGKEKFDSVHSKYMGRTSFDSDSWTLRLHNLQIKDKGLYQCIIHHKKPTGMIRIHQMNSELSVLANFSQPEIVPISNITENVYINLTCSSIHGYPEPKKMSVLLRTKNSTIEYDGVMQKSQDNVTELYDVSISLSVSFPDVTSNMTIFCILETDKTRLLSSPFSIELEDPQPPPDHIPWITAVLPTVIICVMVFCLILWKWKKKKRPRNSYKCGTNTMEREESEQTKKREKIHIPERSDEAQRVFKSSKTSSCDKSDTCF

How the values were obtained:
[1] = target: CD86 (human (endogenous in MDA-MB-231)) (UniProt P42081); experiment: co-IP; whole-cell lysates (400 ug) of MDA-MB-231 cells with tagged OPTN vectors; 3 ug antibody and protein A/G magnetic beads overnight at 4 °C in TBS with 0.4% NP-40; western blot; cells alone, with 3T3-L1 adipocyte coculture, or coculture plus Etomoxir
[2] = target: CD80 (human (endogenous in MDA-MB-231)) (UniProt P33681); experiment: as above
[3] = target: CD86 (human (endogenous in MDA-MB-231)) (UniProt P42081); experiment: co-IP; whole-cell lysates of BafA1-treated MDA-MB-231 cells, untagged OPTN and CD80/CD86; 3 ug antibody and protein A/G magnetic beads overnight at 4 °C in TBS with 0.4% NP-40; western blot; cells alone, with 3T3-L1 coculture, coculture plus Etomoxir, or coculture with PCSK9 knockdown
[4] = target: CD80 (human (endogenous in MDA-MB-231)) (UniProt P33681); experiment: as above

binding [1] | binding [2] | binding [3] | binding [4] | Substance
binds | binds |  |  | Flag-OPTN (full-length optineurin) (from UniProt Q96CV9 1-577)
no binding | no binding |  |  | Flag-OPTN^UBD (OPTN with a deletion of 408-507aa in the UBD domain) (from UniProt Q96CV9 1-577)
 |  | binds | binds | OPTN (in MDA-MB-231 cells, untagged) (from UniProt Q96CV9 1-577)
